Assay results as given in the supplement of paper PMC12645437, “Orthogonal IMiD-Degron Pairs Induce Selective Protein Degradation in Cells” (ACS Chemical Biology, 2025).
The other results are listed elsewhere or left out.
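Also: jurkat cells carrying a lentiviral library of mutant zinc finger degrons fused to EGFP plus mCherry, mCherry+ cells FACS sorted, degron abundance counted by next-generation sequencing.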

The sequences below were run against no compound (DMSO) (assay: log2 fold change of degron read counts, EGFP-low vs EGFP+ sorted cells; higher = lower degron-EGFP level without compound (poor expression or instability)). Settings: compound: DMSO control; 18 h.
With FACDQCGADFTQKGNLLRHIKL the “log2 fold change of degron read counts” value was -0.904.
With FMCEICGRYFTQKGNLLRHIKL the “log2 fold change of degron read counts” value was -0.793.
With FGCEICGHKFTQKGNLLRHIKL the “log2 fold change of degron read counts” value was -0.472.
For FCCEICGHQFTQKGNLLRHIKL, the “log2 fold change of degron read counts” value was -0.683.
FGCEICGAFFTQKGNLLRHIKL was tested, and the “log2 fold change of degron read counts” value was -0.48.
In the case of FLCDQCGAHFTQKGNLLRHIKL, the “log2 fold change of degron read counts” value is reported as -0.874.
With FMCEICGRKFTQKGNLLRHIKL the “log2 fold change of degron read counts” value was -0.688.
In the case of FECDICGANFTQKGNLLRHIKL, the “log2 fold change of degron read counts” value is reported as -2.45.
FKCNQCGHDFTQKGNLLRHIKL was tested, and the “log2 fold change of degron read counts” value was -1.68.
In the case of FKCPICGRFFTQKGNLLRHIKL, the “log2 fold change of degron read counts” value is reported as 0.0714.
For LLCEICGFMCTQKGNLLRHIKL, the “log2 fold change of degron read counts” value was 0.0782.
In the case of FGCEICGRCFTQKGNLLRHIKL, the “log2 fold change of degron read counts” value is reported as -0.699.
FKCEVCGAPFTQKGNLLRHIKL was tested, and the “log2 fold change of degron read counts” value was -0.417.
For FRCPICGASFTQKGNLLRHIKL, the “log2 fold change of degron read counts” value was -0.195.
In the case of FDCPICGRNFTQKGNLLRHIKL, the “log2 fold change of degron read counts” value is reported as -0.669.
For FICPICGALFTQKGNLLRHIKL, the “log2 fold change of degron read counts” value was 0.392.
With FDCNICGAYFTQKGNLLRHIKL the “log2 fold change of degron read counts” value was 0.995.
With LRCPICGFSCTQKGNLLRHIKL the “log2 fold change of degron read counts” value was 0.587.
FSCDICGAGFTQKGNLLRHIKL was tested, and the “log2 fold change of degron read counts” value was -0.966.
With FLCNQCGHPFTQKGNLLRHIKL the “log2 fold change of degron read counts” value was 0.597.
LACPICGFVCTQKGNLLRHIKL was tested, and the “log2 fold change of degron read counts” value was 1.04.
For FMCEICGAFFTQKGNLLRHIKL, the “log2 fold change of degron read counts” value was -0.888.
FVCPICGASFTQKGNLLRHIKL was tested, and the “log2 fold change of degron read counts” value was -0.367.
With FQCDQCGACFTQKGNLLRHIKL the “log2 fold change of degron read counts” value was -2.34.
In the case of FQCSVCGHIFTQKGNLLRHIKL, the “log2 fold change of degron read counts” value is reported as 0.436.
For FICEICGHTFTQKGNLLRHIKL, the “log2 fold change of degron read counts” value was -2.15.
For FMCDQCGACFTQKGNLLRHIKL, the “log2 fold change of degron read counts” value was -0.723.
For FRCEICGRDFTQKGNLLRHIKL, the “log2 fold change of degron read counts” value was -0.973.
With FRCNQCGAAFTQKGNLLRHIKL the “log2 fold change of degron read counts” value was -0.418.
FMCDQCGAKFTQKGNLLRHIKL was tested, and the “log2 fold change of degron read counts” value was -1.32.
For FCCEQCGATFTQKGNLLRHIKL, the “log2 fold change of degron read counts” value was -2.06.
For FWCDICGADFTQKGNLLRHIKL, the “log2 fold change of degron read counts” value was -1.12.
FNCDVCGAMFTQKGNLLRHIKL was tested, and the “log2 fold change of degron read counts” value was -1.05.
For FECDVCGAKFTQKGNLLRHIKL, the “log2 fold change of degron read counts” value was -2.03.
For FLCNQCGHAFTQKGNLLRHIKL, the “log2 fold change of degron read counts” value was -1.18.
FGCDQCGANFTQKGNLLRHIKL was tested, and the “log2 fold change of degron read counts” value was -1.3.
In the case of FACPQCGAHFTQKGNLLRHIKL, the “log2 fold change of degron read counts” value is reported as -0.171.
For FGCEICGACFTQKGNLLRHIKL, the “log2 fold change of degron read counts” value was -0.642.
With FGCDICGAAFTQKGNLLRHIKL the “log2 fold change of degron read counts” value was -0.161.
For FKCPICGAPFTQKGNLLRHIKL, the “log2 fold change of degron read counts” value was 0.231.
FTCNVCGAKFTQKGNLLRHIKL was tested, and the “log2 fold change of degron read counts” value was -0.772.
With FACNICGAQFTQKGNLLRHIKL the “log2 fold change of degron read counts” value was -0.834.
In the case of FHCPVCGADFTQKGNLLRHIKL, the “log2 fold change of degron read counts” value is reported as -0.709.
For FCCPVCGAGFTQKGNLLRHIKL, the “log2 fold change of degron read counts” value was 0.309.
With FFCEQCGAFFTQKGNLLRHIKL the “log2 fold change of degron read counts” value was 0.437.
With FGCEVCGAHFTQKGNLLRHIKL the “log2 fold change of degron read counts” value was -1.33.
In the case of FACDICGAQFTQKGNLLRHIKL, the “log2 fold change of degron read counts” value is reported as -1.37.
In the case of FMCEICGHQFTQKGNLLRHIKL, the “log2 fold change of degron read counts” value is reported as -1.42.
In the case of LDCPICGFTCTQKGNLLRHIKL, the “log2 fold change of degron read counts” value is reported as 0.429.
FNCEQCGAIFTQKGNLLRHIKL was tested, and the “log2 fold change of degron read counts” value was -1.6.
